Each structure is given as a SMILES string. Screen size: about 310,000 compounds; about 2,200 (0.71%) showed an effect of 50% or more. The effect is printed as a negative number. Some of the results follow.

We go through 89 molecules from article PMC4336329 (PLoS ONE, 2015).

For the test, the target named is human ether-à-go-go-related gene (hERG) potassium channel (human, UniProt Q12809). The experiment in a line: primary screen, population patch clamp on CHO cells stably expressing hERG.
human ether-à-go-go-related gene (hERG) potassium channel, sequence (Q12809 whole entry, looked up): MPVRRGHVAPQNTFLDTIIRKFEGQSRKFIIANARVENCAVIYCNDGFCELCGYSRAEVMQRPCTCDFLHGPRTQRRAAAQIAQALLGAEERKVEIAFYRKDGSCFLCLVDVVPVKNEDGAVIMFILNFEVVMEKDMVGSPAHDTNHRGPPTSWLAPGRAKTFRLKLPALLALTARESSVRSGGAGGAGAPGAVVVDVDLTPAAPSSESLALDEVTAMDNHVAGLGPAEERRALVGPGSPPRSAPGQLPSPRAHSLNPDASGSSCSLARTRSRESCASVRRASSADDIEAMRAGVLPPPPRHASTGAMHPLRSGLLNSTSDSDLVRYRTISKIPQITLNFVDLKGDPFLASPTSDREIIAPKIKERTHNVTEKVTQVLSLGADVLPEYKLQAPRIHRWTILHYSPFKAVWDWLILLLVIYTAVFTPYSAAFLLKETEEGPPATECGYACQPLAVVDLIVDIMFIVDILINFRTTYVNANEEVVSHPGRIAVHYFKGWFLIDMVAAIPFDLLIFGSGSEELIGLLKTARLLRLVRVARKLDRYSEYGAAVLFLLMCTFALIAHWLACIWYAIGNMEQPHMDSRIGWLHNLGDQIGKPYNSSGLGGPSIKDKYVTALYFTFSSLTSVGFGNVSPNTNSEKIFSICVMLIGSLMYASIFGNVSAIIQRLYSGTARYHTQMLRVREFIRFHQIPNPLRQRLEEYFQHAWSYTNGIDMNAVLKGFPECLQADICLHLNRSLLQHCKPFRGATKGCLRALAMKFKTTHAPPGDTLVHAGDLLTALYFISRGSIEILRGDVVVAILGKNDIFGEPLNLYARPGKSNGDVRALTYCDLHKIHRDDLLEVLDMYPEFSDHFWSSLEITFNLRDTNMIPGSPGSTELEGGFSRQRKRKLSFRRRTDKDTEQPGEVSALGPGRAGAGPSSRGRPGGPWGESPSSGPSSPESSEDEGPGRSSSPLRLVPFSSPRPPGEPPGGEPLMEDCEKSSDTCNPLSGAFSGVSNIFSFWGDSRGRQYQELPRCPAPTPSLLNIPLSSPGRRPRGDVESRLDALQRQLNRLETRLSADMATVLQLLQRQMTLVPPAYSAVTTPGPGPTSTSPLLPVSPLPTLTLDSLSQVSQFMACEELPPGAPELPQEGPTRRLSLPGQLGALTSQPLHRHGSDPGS
Consider `O=C(O)CSCC(=O)Nc1cccc2ccccc12`, for which the “hERG current change (%, negative = inhibition) at 1uM” value is recorded as 12.3%. Then `Cc1cc(=O)oc2cc(OCC(=O)N(C)C3CCS(=O)(=O)C3)c(Cl)cc12` (centres unmarked), with 23.2%.

Turning to `Cc1cccc(N2CC(C(=O)Nc3ccc(S(=O)(=O)N4CCCCC4)cc3)CC2=O)c1C` (centres unmarked), the “hERG current change (%, negative = inhibition) at 1uM” value was found to be 13.7%. Regarding `COc1ccc(CC(=O)N2CCN(C)CC2)cc1OC.Cl`, the “hERG current change (%, negative = inhibition) at 1uM” value is 21.8%. The same measure for `O=C(COc1cccnc1[N+](=O)[O-])Nc1ccc(Cl)c(S(=O)(=O)N2CCOCC2)c1`: 0.862%. For `CCc1ccc(N(CC(=O)NC2CC2)S(=O)(=O)c2ccc(C)cc2)cc1`, the “hERG current change (%, negative = inhibition) at 1uM” value is reported as -0.674%. In the case of `Cc1ccccc1OCC(O)Cn1c(NCc2ccco2)nc2c1c(=O)[nH]c(=O)n2C` (centres unmarked), the “hERG current change (%, negative = inhibition) at 1uM” value was 6.34%.

Consider `Cc1c(C)n(O)c2ccc3nonc3c12`, for which the “hERG current change (%, negative = inhibition) at 1uM” value was 14%. The same measure for `Cc1ccccc1OCCCC(=O)Nc1nncs1`: -10.7%; for `Cc1cc(C)n(-c2nc(NCCCO)c3c4c(sc3n2)CCCC4)n1`: -4.37%. The same measure for `O=C(N/N=C/c1cccc(F)c1)c1ccc(Cl)cc1`: 8.4%; for `Cl.O=C(CN1CCC(C(=O)c2cccc(F)c2)CC1)NCc1cccs1`: -10.3%; for `CCCCN1C(=O)C(=O)N(CC(=O)N2N=C3/C(=C/c4ccco4)CCCC3C2c2ccco2)C1=O` (centres unmarked): -11.4%. Then `CCOC(=O)C1=C(C)N(C)C(=S)NC1c1c(OCC)ccc2ccccc12` (centres unmarked), with 5.45%; and `C#CCn1c(=NC(=O)c2sc3ccccc3c2Cl)sc2cc(S(N)(=O)=O)ccc21`, with 4.14%; and `COc1cccc(/C=N/NC(=O)CO/N=C(\C)c2cccs2)c1OC`, with 3.29%.

As for `CCOc1cc(CNCc2ccc3c(c2)OCO3)ccc1OC.Cl`, the “hERG current change (%, negative = inhibition) at 1uM” value amounted to 4.69%. The same measure for `COc1ccc(-c2noc(N3CCC(C(=O)NCCCN4CC(C)CC(C)C4)CC3)n2)cc1` (centres unmarked): 7.61%; for `CS(=O)(=O)N(CCc1ccccc1)CC(=O)NCc1ccccn1`: 12.9%. For the molecule `CCOC(=O)C1CCCN(Cc2ccc(-c3ccccc3)cc2)C1` (centres unmarked), the “hERG current change (%, negative = inhibition) at 1uM” value is reported as 11.7%. For `CCOCCCNC(=O)c1cn(C)c2ccc(S(=O)(=O)N3CCCCC3)cc2c1=O`, the “hERG current change (%, negative = inhibition) at 1uM” value worked out at 9.18%. As to `Cc1cccc(NS(=O)(=O)c2cc(C(=O)N3CCc4ccccc4C3)ccc2Cl)c1C`, the “hERG current change (%, negative = inhibition) at 1uM” value amounted to 0.0921%. Take `Cc1c(NC(=S)NC(C)(C)C)c(=O)n(-c2ccccc2)n1C`: the “hERG current change (%, negative = inhibition) at 1uM” value is given as -0.627%. The same measure for `CCN(CC)S(=O)(=O)c1ccc(N2CCCC2)c(NS(=O)(=O)c2cccs2)c1`: 3.62%; for `CC(=O)c1cccc(NC(=S)NC(=O)Cc2ccccc2)c1`: 9.53%; for `CCOC(=O)c1[nH]c(C)c(C(=O)N2CCN(C(=O)c3ccco3)CC2)c1C`: 14%. Then `O=C(c1ccc(S(=O)(=O)N2CCOCC2)cc1)N(Cc1ccco1)Cc1cccs1`, with 3.74%; and `Cc1cccn2c(=O)c3cc(C(=O)N4COCC4(C)C)n(Cc4ccccc4)c3nc12`, with 8.93%.

As for `O=C(CSc1nc(O)cc(=O)n1C1CCCC1)Nc1cccc(Cl)c1Cl`, the “hERG current change (%, negative = inhibition) at 1uM” value came to 8.35%. In the case of `Cc1c(C(=O)C(=O)NCC2CCCO2)c2ccccc2n1C` (centres unmarked), the “hERG current change (%, negative = inhibition) at 1uM” value was determined as 9.67%.

For the molecule `O=C(NCCc1ccccc1)c1cnc2ccccn2c1=O`, the “hERG current change (%, negative = inhibition) at 1uM” value stood at 8.72%. Then `CCOC(=O)C1CCN(C(=O)c2ccc3c(c2)NC(=O)/C(=C\c2cccc(C)c2)S3)CC1`, with 15.4%. Regarding `COc1ccc(F)c(CN2CCC(N3CCC(C(=O)N4CCOCC4)CC3)CC2)c1`, the “hERG current change (%, negative = inhibition) at 1uM” value was -9.52%. Then `COc1ccc(S(=O)(=O)NCc2ccc3c(c2)OCO3)cc1OC`, with 12.8%; and `O=C(Nc1nc(-c2ccncc2)cs1)c1ccco1`, with 11.5%; and `COc1ccc(C(=O)NCC(=O)OCC(=O)NC(=O)c2ccc(C(C)(C)C)cc2)cc1OC`, with 11.9%. With `COc1ccc(/C(N)=N/OC(=O)c2ccc(C)c([N+](=O)[O-])c2)cc1`, the “hERG current change (%, negative = inhibition) at 1uM” value worked out at 0.038%. Turning to `CCC(=O)N1CCc2cc(S(=O)(=O)NCCCOC)ccc21`, the “hERG current change (%, negative = inhibition) at 1uM” value is reported as 15.3%. Then `CC(=O)Nc1ccc(OCC(O)CN2C(C)(C)CC(O)CC2(C)C)cc1` (centres unmarked), with 10.7%; and `O=C(NN1S(=O)(=O)c2ccccc2S1(=O)=O)c1ccc(Br)cc1`, with -13.4%; and `O=C(CCN1C(=O)/C(=C/c2ccccc2Cl)SC1=S)Nc1cccnc1`, with 8.44%. Consider `COc1ccc(COC(=O)C2=C(C)NC(=O)NC2c2ccccc2OC(C)C)cc1` (centres unmarked), for which the “hERG current change (%, negative = inhibition) at 1uM” value is 13.4%.

Turning to `CN1CCCN(c2ccc([N+](=O)[O-])cc2)CC1`, the “hERG current change (%, negative = inhibition) at 1uM” value is -21.2%. Then `Cc1nn(CC(=O)NNC(=O)c2ccc(Br)cc2)c(C)c1[N+](=O)[O-]`, with -0.801%; and `CC1(C(=O)OCC(=O)N2c3ccccc3Sc3ccccc32)CC1(Cl)Cl` (centres unmarked), with -2.87%. As for `COc1ccc(OC)c(NC(=O)c2cccnc2Sc2ccccc2)c1`, the “hERG current change (%, negative = inhibition) at 1uM” value is 2.44%. On to `O=C(CCc1ccccc1)NCc1cccnc1`, for which the “hERG current change (%, negative = inhibition) at 1uM” value was -6.75%.

In the case of `COc1ccc(Cc2noc(CN3CCC(c4ccncc4)CC3)n2)cc1OC`, the “hERG current change (%, negative = inhibition) at 1uM” value is -2.78%. Take `N#Cc1cccc(NC(=O)COC(=O)c2cccc(N3C(=O)c4ccccc4C3=O)c2)c1`: the “hERG current change (%, negative = inhibition) at 1uM” value stood at 7.01%. Regarding `Cc1ccc2c(c1)nnn2C1CCN(C(=O)c2cccs2)CC1`, the “hERG current change (%, negative = inhibition) at 1uM” value is reported as -22.1%.

On to `c1ccc(NCc2ccccn2)cc1`, for which the “hERG current change (%, negative = inhibition) at 1uM” value is given as -5.15%. Then `COc1ccc(CNC(=O)COc2cccnc2[N+](=O)[O-])cc1OC`, with 13.1%; and `Cc1ccccc1C(=O)N1CCN(c2ccc(NC(=O)CSc3ccc(Cl)cc3)cc2)CC1`, with 11.5%.

On to `CC(=O)c1ccc(NC(=O)C2CCC(C)NC2=O)cc1` (centres unmarked), for which the “hERG current change (%, negative = inhibition) at 1uM” value is reported as 0.221%. Consider `O=C(CSC(=S)N1CCCCC1)Nc1ncc2c(n1)CC(c1ccco1)CC2=O` (centres unmarked), for which the “hERG current change (%, negative = inhibition) at 1uM” value is given as -0.867%. On to `CCS(=O)(=O)c1ccc2oc(=O)c(/C=C(\O)c3ccc(Cl)cc3)nc2c1`, for which the “hERG current change (%, negative = inhibition) at 1uM” value was 11.8%.

Consider `COc1ccccc1CNC(=O)N1CCN(c2ccccc2C)CC1`, for which the “hERG current change (%, negative = inhibition) at 1uM” value is listed as 10.4%.

For the molecule `Cn1c(CN2CCOCC2)nnc1SCC(=O)Nc1cc(Cl)ccc1Cl`, the “hERG current change (%, negative = inhibition) at 1uM” value came out at 3.99%. The same measure for `CCCn1nc(C(=O)OCC(=O)Nc2ncc(Cl)c(C)c2Cl)c2ccccc2c1=O`: 8.8%; for `CCOc1ccc2nc3ccc4[nH]onc4c3c2c1`: 10.6%. The same measure for `CCc1ccccc1NC(=O)CN(C)C(=O)CSc1nc2cc(Cl)ccc2s1`: 22.3%; for `Nn1c(SCC(=O)Nc2nnc(-c3ccccc3)o2)nnc1C1CC1`: 10.3%. The same measure for `Cl.N=c1ccn(Cc2ccc(Cl)cc2Cl)cc1`: -1.41%; for `O=C(Nc1ccccc1N1CCOCC1)c1ccc([N+](=O)[O-])cc1`: 6.82%. In the case of `CN(C)C1(CNC(=O)c2cccc(S(=O)(=O)NCc3ccccc3)c2)CCCCC1`, the “hERG current change (%, negative = inhibition) at 1uM” value is given as -7.97%.

With `COc1ccc(C(=O)/C=C/NCc2ccc(C)cc2)cc1`, the “hERG current change (%, negative = inhibition) at 1uM” value is recorded as 0.382%. The same measure for `Cc1cc(CNC(=O)CC2C(=O)NCCN2Cc2ccccc2C(F)(F)F)on1` (centres unmarked): 9.63%; for `FC(F)Oc1ccc(NC(=S)NCCc2ccccn2)cc1`: 5.3%.

For `c1ccc(CCNC2=NCCCS2)cc1`, the “hERG current change (%, negative = inhibition) at 1uM” value worked out at 5.59%. On to `O=C(ON=C1CCN(c2ccc([N+](=O)[O-])cc2)CC1)c1ccccc1`, for which the “hERG current change (%, negative = inhibition) at 1uM” value was -26%. The same measure for `O=C(Nc1cccc2ccccc12)N1CCN(Cc2ccc3c(c2)OCO3)CC1`: -0.329%; for `Cc1ccc(S(=O)(=O)N=Nc2c(O)[nH]c3ccccc23)cc1`: 6.72%. Then `Cc1ccc(/C=C2\SC(=O)N(CCNC(=O)C3CSC4(C)CCC(=O)N34)C2=O)cc1` (centres unmarked), with -22.9%; and `CCn1c(SCc2cc(=O)n3ccsc3n2)nc2ccccc21`, with 3.71%; and `COc1ccc(C(=O)NCCCN2CCOCC2)cc1Br`, with 9.03%. Then `CC(C)Nc1ncnc2c1cnn2-c1ccccc1`, with 4.33%; and `COC(=O)CCC(=O)Nc1cccc(C(=O)Nc2cccc(Cl)c2)c1`, with 3.73%.

As to `CCONC(=NC)c1nonc1N`, the “hERG current change (%, negative = inhibition) at 1uM” value is given as 16.3%.

As to `COC(C(=O)NC1CC1)c1ccccc1` (centres unmarked), the “hERG current change (%, negative = inhibition) at 1uM” value stood at 18.5%. Turning to `O=S(=O)(Nc1ccccc1Cl)c1ccc(F)cc1`, the “hERG current change (%, negative = inhibition) at 1uM” value is on record as -1.63%. Take `CCCNC(=O)c1nc(C)n(-c2cc(Cl)cc(Cl)c2)n1`: the “hERG current change (%, negative = inhibition) at 1uM” value is -0.0954%. Take `O=C(CCS(=O)(=O)c1ccccc1)Nc1nc2ccc(F)cc2s1`: the “hERG current change (%, negative = inhibition) at 1uM” value is listed as -11.2%.

In the case of `O=C(C(=O)c1ccc(O)cc1)c1ccccc1`, the “hERG current change (%, negative = inhibition) at 1uM” value came out at 16.9%. As to `COC(=O)c1ccc(S(=O)(=O)NNC(=O)c2ccc(S(=O)(=O)N3CCCCC3)cc2)cc1`, the “hERG current change (%, negative = inhibition) at 1uM” value stood at 3.54%. Consider `Cc1ccccc1OS(=O)(=O)c1cn(C)c(=O)n(C)c1=O`, for which the “hERG current change (%, negative = inhibition) at 1uM” value stood at 14.5%.

Regarding `CN(c1cccc(NC(=O)Cc2ccccc2)c1)S(C)(=O)=O`, the “hERG current change (%, negative = inhibition) at 1uM” value was determined as 14.8%. Then `O=C(Nc1ccc2c(c1)OCO2)c1ccccn1`, with 12.3%. The same measure for `Cc1noc(C)c1C(=O)OCC(=O)Nc1cccc(S(=O)(=O)N(C)C)c1`: 5.39%. Then `CCOC(=O)C(CSCC(=O)c1ccc(Br)cc1)NC(=O)OC(C)(C)C` (centres unmarked), with 4.58%.
